Where a name gives a salt, the structure may show the parent alone. ± gives the standard deviation of the averaged measurements. Some of the results follow.
Tests used:
Conditions in all cases: priming compound concentration 100 µM
hAMSC donor 1 [1] = assay: Hoechst total cell count ratio vs vehicle control; higher = more cells (less toxicity)
hAMSC donor 2 [2] = assay: as above
hAMSC donor 1 [3] = assay: transgenic luciferase activity (RLU/mg protein) fold change vs vehicle control (ratio); higher = more transgene expression
hAMSC donor 2 [4] = assay: as above
hAMSC donor 1 [5] = assay: transfection efficiency (EGFP+ cells / Hoechst count) fold change vs vehicle control (ratio); hAMSC are human adipose-derived mesenchymal stem cells given an EGFP-luciferase plasmid by lipofection; higher = enhanced transfection
hAMSC donor 2 [6] = assay: as above
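For Hoechst total cell count ratio vs vehicle control in this document: compound added 30 min before Lipofectamine 3000 lipoplex delivery, triplicate-well means expressed against DMSO vehicle control wells of the same 96-well plate.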
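For transfection efficiency (EGFP+ cells / Hoechst count) fold change vs vehicle control in this document: compounds added 30 min before Lipofectamine 3000 lipoplex transfection, triplicate means relative to DMSO vehicle wells on the same plate, luciferase RLU normalized to BCA total protein.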
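For transgenic luciferase activity (RLU/mg protein) fold change vs vehicle control in this document: compounds in DMSO added 30 min before Lipofectamine 3000 transfection of pEGFP-Luc in 96-well plates, values are means of triplicate wells over DMSO vehicle wells on the same plate.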

Row | SMILES | Hoechst total cell count ratio (hAMSC donor 1 [1]) | Hoechst total cell count ratio (hAMSC donor 2 [2]) | transgenic luciferase activity (hAMSC donor 1 [3]) | transgenic luciferase activity (hAMSC donor 2 [4]) | transfection efficiency (hAMSC donor 1 [5]) | transfection efficiency (hAMSC donor 2 [6])
1 | CC1=C(/C=C/C(C)=C/C=C/C(C)=C/C(=O)O)C(C)(C)CCC1 [trans-Retinoic acid] | 0.864 ± 0.0095 | 1.11 ± 0.2 | 0.531 ± 0.22 | 0.737 ± 0.26 | 0.337 ± 0.26 | 0.888 ± 0.19
2 | NS(=O)(=O)c1cc2c(cc1Cl)NCNS2(=O)=O [Hydrochlorothiazide] | 1.2 ± 0.22 | 1.42 ± 0.35 | 0.498 ± 0.38 | 1.21 ± 0.18 | 0.836 ± 0.41 | 0.957 ± 0.068
3 | N#Cc1ccc(C(c2ccc(C#N)cc2)n2cncn2)cc1 [Letrozole] | 1.37 ± 0.094 | 1.18 ± 0.19 | 0.709 ± 0.024 | 0.518 ± 0.093 | 0.476 ± 0.16 | 0.92 ± 0.064
4 | CCCNCC(O)COc1ccccc1C(=O)CCc1ccccc1 (configuration not stated) [Propafenone] | 0.988 ± 0.15 | 0.541 ± 0.049 | 0.287 ± 0.015 | 0.965 ± 0.18 | 0.445 ± 0.13 | 0.894 ± 0.11
5 | C[C@]12CCC(=O)C=C1CC[C@@H]1[C@@H]2CC[C@@]2(C)[C@H]1CC[C@]2(O)C(=O)CO [11-Deoxycortisol] | 1.8 ± 0.16 | 0.922 ± 0.32 | 0.73 ± 0.11 | 0.292 ± 0.049 | 1.18 ± 0.15 | 1.17 ± 0.17
6 | NS(=O)(=O)c1cc2c(cc1C(F)(F)F)NCNS2(=O)=O [Hydroflumethiazide] | 1.83 ± 0.14 | 1.61 ± 0.4 | 6.14 ± 3 | 2.62 ± 0.36 | 1.4 ± 0.3 | 1.9 ± 0.39
7 | CC(C)(C)NCC(O)c1ccc(O)c(CO)c1 (configuration not stated) [Salbutamol sulfate] | 1.22 ± 0.14 | 1.05 ± 0.12 | 0.748 ± 0.22 | 1.01 ± 0.31 | 1.08 ± 0.082 | 0.917 ± 0.14
8 | Cn1c(=O)c2nc[nH]c2n(C)c1=O [Theophylline] | 1.18 ± 0.13 | 0.906 ± 0.3 | 0.71 ± 0.42 | 0.501 ± 0.21 | 1.28 ± 0.18 | 0.922 ± 0.28
9 | CC(=O)O[C@@]12CO[C@@H]1C[C@H](O)[C@@]1(C)C(=O)[C@H](O)C3=C(C)[C@@H](OC(=O)[C@H](O)[C@@H](NC(=O)OC(C)(C)C)c4ccccc4)C[C@@](O)([C@@H](OC(=O)c4ccccc4)[C@H]21)C3(C)C [Docetaxel] | 0.512 ± 0.051 | 0.53 ± 0.19 | 1.42 ± 0.39 | 0.298 ± 0.011 | 2.66 ± 0.23 | 0.617 ± 0.24
10 | Nc1ccc(S(=O)(=O)c2ccc(N)cc2)cc1 [Dapsone] | 1.08 ± 0.058 | 0.98 ± 0.16 | 8.68 ± 1.3 | 2.88 ± 0.18 | 2.83 ± 0.19 | 2.01 ± 0.4
11 | CC[C@H](C)C(=O)O[C@H]1C[C@H](O)C=C2C=C[C@H](C)[C@H](CC[C@@H](O)C[C@@H](O)CC(=O)O)[C@H]21 [Pravastatin sodium] | 1.1 ± 0.08 | 1.12 ± 0.23 | 0.772 ± 0.059 | 0.845 ± 0.2 | 0.785 ± 0.052 | 1.24 ± 0.14
12 | O=C1Nc2ccc(Cl)cc2[C@@](C#CC2CC2)(C(F)(F)F)O1 [Efavirenz] | 0.195 ± 0.15 | 0.0943 ± 0.035 | 0.00287 ± 0.0024 | 0.000168 ± 2.2e-05 | 0.55 ± 0.48 | 0.767 ± 0.82
13 | CC(C)(C)NC(=O)[C@H]1CC[C@H]2[C@@H]3CC[C@H]4NC(=O)C=C[C@]4(C)[C@H]3CC[C@]12C [Finasteride] | 1.25 ± 0.27 | 1.52 ± 0.18 | 0.557 ± 0.18 | 0.743 ± 0.047 | 1.1 ± 0.23 | 0.77 ± 0.057
14 | O=c1ncc(F)c[nH]1 [5-Fluoro-2-pyrimidone] | 1.27 ± 0.036 | 1.17 ± 0.19 | 0.368 ± 0.11 | 0.564 ± 0.077 | 0.902 ± 0.26 | 1.03 ± 0.063
15 | CN1CCC(=C2c3ccccc3C=Cc3ccccc32)CC1 [Cyproheptadine hydrochloride] | 0.678 ± 0.11 | 0.254 ± 0.063 | 1.05 ± 0.11 | 0.161 ± 0.012 | 1.86 ± 0.48 | 0.845 ± 0.42
16 | O=C(O[C@H]1[C@H](Oc2ccccc2COC(=O)C2(O)C=CCCC2=O)O[C@H](CO)[C@@H](O)[C@@H]1O)c1ccccc1 (some centres not stated) [Tremulacin] | 1.4 ± 0.11 | 1.23 ± 0.2 | 0.423 ± 0.15 | 0.731 ± 0.15 | 0.861 ± 0.15 | 0.442 ± 0.14
17 | CC(C)/N=c1\cc2n(-c3ccc(Cl)cc3)c3ccccc3nc-2cc1Nc1ccc(Cl)cc1 [Clofazimine] | 0.959 ± 0.067 | 0.931 ± 0.071 | 0.805 ± 0.38 | 0.573 ± 0.066 | 0.575 ± 0.28 | 0.542 ± 0.026
18 | c1ccc2c(c1)CCCC2C1=NCCN1 (configuration not stated) [Tetrahydrozoline hydrochloride] | 1.54 ± 0.14 | 1.37 ± 0.21 | 0.85 ± 0.39 | 0.273 ± 0.05 | 0.858 ± 0.055 | 1.22 ± 0.37
19 | NC1CCN(c2nc3c(cc2F)c(=O)c(C(=O)O)cn3-c2ccc(F)cc2F)C1 (configuration not stated) [Tosufloxacin tosilate] | 3.06 ± 0.42 | 1.18 ± 0.02 | 0.829 ± 0.61 | 0.809 ± 0.13 | 0.826 ± 0.1 | 1.31 ± 0.076

Row | SMILES | Hoechst total cell count ratio (hAMSC donor 1 [1]) | Hoechst total cell count ratio (hAMSC donor 2 [2]) | transgenic luciferase activity (hAMSC donor 1 [3]) | transgenic luciferase activity (hAMSC donor 2 [4]) | transfection efficiency (hAMSC donor 1 [5]) | transfection efficiency (hAMSC donor 2 [6])
20 | CCOC(=O)C1=C(COCCN)NC(C)=C(C(=O)OC)C1c1ccccc1Cl (configuration not stated) [Amlodipine] | 0.073 ± 0.015 | 0.066 ± 0.032 | 0.00173 ± 0.0013 | 0.000351 ± 0.00015 | 0.848 ± 0.32 | 0.0452 ± 0.039
21 | Nc1nc2c(ncn2COCCO)c(=O)[nH]1 [Acyclovir] | 1.16 ± 0.2 | 1.19 ± 0.19 | 0.375 ± 0.058 | 0.897 ± 0.22 | 0.786 ± 0.2 | 0.996 ± 0.2
22 | CCCCC(=O)O[C@]1(C(=O)CO)CC[C@H]2[C@@H]3CCC4=CC(=O)CC[C@]4(C)[C@H]3[C@@H](O)C[C@@]21C [Hydrocortisone 17-valerate] | 1.26 ± 0.18 | 1.05 ± 0.022 | 8.84 ± 1.1 | 1.25 ± 0.43 | 2.16 ± 0.79 | 1.29 ± 0.16
23 | O=C1N[C@H](C(=O)O)CS1 [Procysteine] | 1.46 ± 0.13 | 1.11 ± 0.079 | 3.54 ± 5 | 0.525 ± 0.093 | 1.24 ± 0.15 | 1.07 ± 0.18
24 | CN(C)CC[C@@H](c1ccc(Cl)cc1)c1ccccn1 [Dexchlorpheniramine maleate] | 1.24 ± 0.036 | 1.24 ± 0.12 | 0.371 ± 0.22 | 0.51 ± 0.21 | 0.727 ± 0.19 | 0.703 ± 0.075
25 | C[C@]12C=CC(=O)C=C1CC[C@@H]1[C@@H]2[C@@H](O)C[C@@]2(C)[C@H]1CC[C@]2(O)C(=O)CO [Prednisolone] | 1.2 ± 0.046 | 1.43 ± 0.23 | 5.15 ± 1.1 | 4.04 ± 0.85 | 2.49 ± 0.25 | 1.2 ± 0.11
26 | CC(COc1ccccc1)NC(C)C(O)c1ccc(O)cc1 (configuration not stated) [Duvadilan] | 1.27 ± 0.24 | 1.23 ± 0.087 | 1.02 ± 0.39 | 0.424 ± 0.12 | 1.04 ± 0.025 | 0.933 ± 0.16
27 | COC(=O)C1=C(C)NC(C)=C(C(=O)OC)C1c1ccccc1[N+](=O)[O-] [Nifedipine] | 1.69 ± 0.029 | 0.843 ± 0.27 | 0.967 ± 0.26 | 1.4 ± 0.17 | 0.552 ± 0.13 | 0.773 ± 0.12
28 | O=C1CC2(CCCC2)CC(=O)N1CCCCN1CCN(c2ncccn2)CC1 [Buspirone hydrochloride] | 1.4 ± 0.1 | 1.78 ± 0.15 | 1.06 ± 0.39 | 0.913 ± 0.17 | 0.866 ± 0.072 | 0.933 ± 0.14
29 | CC(C)(C)C(O)/C=C/c1ccc2c(c1)OCO2 (configuration not stated) [Stiripentol] | 1.05 ± 0.13 | 1.62 ± 0.15 | 1.25 ± 0.23 | 1.02 ± 0.27 | 1.11 ± 0.26 | 0.882 ± 0.14
30 | CCCCC(=O)O[C@H]1CC[C@H]2[C@@H]3CCc4cc(O)ccc4[C@H]3CC[C@]12C [Estradiol valerate] | 0.488 ± 0.31 | 0.0597 ± 0.011 | 0.00301 ± 0.0021 | 0.000577 ± 0.00061 | 0.123 ± 0.099 | 0.22 ± 0.2
31 | Nc1ncnc2c1ncn2[C@@H]1O[C@H](CO)C[C@@H]1O [3'-Deoxydenosine] | 1.1 ± 0.082 | 1.02 ± 0.16 | 1.16 ± 0.19 | 1.45 ± 0.78 | 0.57 ± 0.15 | 0.93 ± 0.11
32 | C[C@@H]1C[C@H]2[C@@H]3C[C@H](F)C4=CC(=O)C(Cl)=C[C@]4(C)[C@@]3(F)[C@@H](O)C[C@]2(C)[C@@]1(O)C(=O)CO [Halometasone monohydrate] | 0.965 ± 0.059 | 2.34 ± 0.25 | 3.35 ± 0.38 | 1.57 ± 0.061 | 0.897 ± 0.27 | 0.552 ± 0.045
33 | O=C1C(CC[S+]([O-])c2ccccc2)C(=O)N(c2ccccc2)N1c1ccccc1 (configuration not stated) [Sulfinpyrazone] | 1.06 ± 0.078 | 1.16 ± 0.089 | 1.08 ± 0.27 | 0.539 ± 0.23 | 1.46 ± 0.43 | 0.964 ± 0.037
34 | C=CCc1ccc(O)c(-c2ccc(O)c(CC=C)c2)c1 [Honokiol] | 0.297 ± 0.27 | 0.126 ± 0.046 | 0.00216 ± 0.00092 | 0.00054 ± 6.2e-05 | 0.21 ± 0.11 | 0.0305 ± 0.053
35 | O=c1c(O[C@@H]2O[C@H](CO)[C@@H](O)[C@H](O)[C@H]2O)c(-c2ccc(O)c(O)c2)oc2cc(O)cc(O)c12 [Isoquercitrin] | 1.15 ± 0.037 | 1.5 ± 0.1 | 0.555 ± 0.22 | 0.783 ± 0.031 | 0.943 ± 0.21 | 0.714 ± 0.16
36 | CCN(CC)CC#CCOC(=O)C(O)(c1ccccc1)C1CCCCC1 (configuration not stated) [Oxybutynin hydrochloride] | 1.39 ± 0.19 | 2.09 ± 0.22 | 0.822 ± 0.18 | 0.63 ± 0.043 | 0.646 ± 0.3 | 0.374 ± 0.021
37 | CN1CCCCC1CCN1c2ccccc2Sc2ccc([S+](C)[O-])cc21 (configuration not stated) [Mesoridazine besylate] | 0.953 ± 0.033 | 1.07 ± 0.11 | 1.9 ± 0.48 | 0.377 ± 0.093 | 1.81 ± 0.41 | 0.885 ± 0.18
